Experimental data from PubChem BioAssay AID1458 (National Center for Advancing Translational Sciences (NCATS), 2008).
Among all 210,000 compounds or so, about 5,900 (2.8%) were called active. The shares of active, inactive and inconclusive entries below differ from those in the screen. Calls follow the shape of the dose curve; as a rule, active = well fitted activation curve with a large enough effect; inconclusive = small, poorly fitted or top-dose-only effect; inactive = no such curve, though single readings can be large or run the other way. Potencies beside an inconclusive call are fits to weak or partial responses and may not hold up.

Experiment: qHTS Assay for Enhancers of SMN2 Splice Variant Expression; also: nearly all actives have a fitted effect of over 55% in size; as to activity change, positive = activation: % of control where 0% means no effect
Conditions: HEK293 SMN2-luciferase splicing reporter, luminescence, 30-36 h; activity change, positive = activation: at 46.1 µM (top of the series)
In short: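 HEK293 cells carry an SMN2 minigene-luciferase reporter in which exon 7 inclusion puts luciferase in frame. Cells were seeded at 2000 cells/well, attached for 10-12 hours, then exposed to compounds for 30-36 hours at 37C before ONE-Glo luminescence.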
Potency is read from the fitted curve at half-maximal effect; tags tell the direction and shape of the fitted curve.

Structure (SMILES)	Potency	activity change, positive = activation
O=C(O)CCSCC(=O)c1ccc2c(c1)OCCO2	inconclusive: 14.1 µM [activator, single point]	–
Cc1ccc(SCc2noc(C(=O)NCC3CCCO3)c2C(=O)O)cc1C (configuration not stated)	–	inconclusive: 30.9% [activator]
O=C(Nc1ccc(C(=O)N2CCCC2)cc1)c1ccccc1F	inconclusive: 12.6 µM [activator, partial curve]	–
N#CC(=C=[N-])C1=C(C#N)C(c2ccccc2F)C([n+]2ccccc2)C(O)(C2CC2)N1 (configuration not stated)	inconclusive: 4.47 µM [activator, full curve]	–
O=C(O)c1cccc(NC(=S)N/N=C/c2ccccc2OCc2ccc(Br)cc2)c1	inconclusive: 22.4 µM [activator, single point]	–
CN1CCN(S(=O)(=O)c2ccc(=O)[nH]c2)CC1	inconclusive: 1.58 µM [activator, partial curve, poor fit]	–
CC(=O)N(C)c1nnc(-c2ccccn2)s1	active: 20 µM	–
O=C(Cc1nc2ccccc2s1)c1ccc(O)cc1O	inconclusive: 17.8 µM [activator, partial curve, poor fit]	–
Cn1c(/C(C#N)=C/c2cccc(O)c2)nc2ccccc21	inconclusive: 0.398 µM [activator, partial curve]	–
O=C(O)C(CC1CCCCC1)N1CCS(=O)(=O)CC1 (configuration not stated)	inactive	–
CC(C)N(c1ccccc1)c1ccc(NC(=O)COC(=O)CCN2C(=O)c3cccc([N+](=O)[O-])c3C2=O)cc1	inactive	–
Cn1c(C(=O)NCc2ccccc2)cc2oc3ccccc3c21	active: 31.6 µM	–
COC(=O)c1cc2sccc2n1Cc1ccc(F)cc1Cl	inactive	–
CCN(CC)S(=O)(=O)c1cc(NC(=O)C(C)N(C)CC(=O)Nc2c(C)cccc2C)ccc1C (configuration not stated)	–	inactive: -0.859% [at 1.84 µM]
O=C(Nc1ccc(Cl)c(Cl)c1)N1CC=CCC1	inconclusive: 12.6 µM [activator, single point]	–
CNc1nnc(-c2cc3cc(Cl)ccc3oc2=O)s1	inconclusive: 35.5 µM [activator, single point]	–
COc1c(C)cccc1C(=O)Nc1ccc(N2CCN(S(C)(=O)=O)CC2)cc1	inconclusive: 8.91 µM [activator, partial curve]	–
C=CCn1c(=NC(=O)c2cc(-c3cccs3)nc3ccccc23)sc2cc(S(N)(=O)=O)ccc21	inconclusive: 4.47 µM [activator, single point]	–
CCCC(=O)n1nc(-c2ccco2)nc1SCc1ccccc1	inconclusive: 12.6 µM [activator, single point]	–
CCC1Oc2ccc(C)cc2N(CC(=O)NCCN2C(C)CCCC2C)C1=O (configuration not stated)	inconclusive: 1.12 µM [activator, full curve, poor fit]	–
COc1cccc(C2NC(CC(C)C)(C(=O)O)C3C(=O)N(Cc4ccccc4)C(=O)C23)c1O (configuration not stated)	inconclusive: 6.31 µM [activator, partial curve, poor fit]	–
O=C(Cc1ccccc1)c1ccc2c(c1)OCCO2	inconclusive: 11.2 µM [activator, partial curve]	–
Cc1ccc(-c2nn(CCC(N)=O)c(=O)c3ccccc23)cc1	inconclusive: 25.1 µM [activator, single point]	–
COc1ccc(NC(=O)N2CC3(CCN(C(=O)c4cccc(F)c4)CC3)C2)cc1	inactive	–

Structure (SMILES)	Potency	activity change, positive = activation
O=c1c(/C=N/Nc2ccccc2)c(Sc2nnnn2-c2ccccc2)nc2ccccn12	inconclusive: 7.94 µM [activator, partial curve]	–
CN1C(=O)/C(=C\C=C2/CCCN2C)N(C)C1=S	inconclusive: 35.5 µM [activator, single point]	–
COc1ccc(CC(=O)NNc2ncnc3c2cnn3-c2ccccc2)cc1	inactive	–
Cc1ccc(-c2nnc3c4ccccc4c(C)nn23)cc1NC(=O)c1ccccc1	inactive	–
COC(=O)c1ccc(Cn2nnc3c(=O)[nH]c(C4CCCN(S(=O)(=O)c5ccccc5Cl)C4)nc32)cc1 (configuration not stated)	inactive	–
Cc1sc2nc(SCC(=O)N3CCN(CCO)CC3)n(-c3ccccc3)c(=O)c2c1C	inconclusive: 35.5 µM [activator, single point]	–
CCCc1cc(=O)[nH]c(SCC(=O)NCCC2=CCCCC2)n1	inactive	–
O=C(/C=C/Nc1ccccc1)c1ccc(Oc2ncccn2)cc1	inconclusive: 12.6 µM [activator, partial curve]	–
CC(=O)Nc1cccc(/C(C)=N/NC(=S)NC(C)C)c1	inactive	–
O=C(CNC(=O)c1ccc(Br)o1)OCC(=O)c1cccc([N+](=O)[O-])c1	inconclusive: 20 µM [activator, single point]	–
CCOc1ccc(OCc2cccc(C(=O)N3CCCCCC3)c2)cc1	active: 1.78 µM	–
CCOC(=O)C1=C(C)N=C(SC)N(C)C1c1ccccc1 (configuration not stated)	inactive	–
CN(C)c1cccc(C(=O)NC2CCCCCC2)c1	active: 12.6 µM	–
O=S1(=O)CC2N=C(N(Cc3c(F)cccc3Cl)c3ccccc3F)SC2C1 (configuration not stated)	inconclusive: 2 µM [activator, full curve]	–
CC(C)C(=O)OCC(=O)Nc1ccc(N=Nc2ccccc2)cc1	active: 11.2 µM	–
Cc1ccccc1OCCn1c(=N)n(C(C)C)c2ccccc21	inactive	–
COc1cc(NC(=O)c2ccc(F)cc2)c(OC)cc1Cl	inconclusive: 5.62 µM [activator, single point]	–
O=C(CN1CCOCC1)N1CCN(c2nnc(-c3ccccc3)c3ccccc23)CC1	inconclusive: 0.355 µM [activator, full curve, poor fit]	–
c1ccc(COc2ccc(OCCOCCn3cncn3)cc2)cc1	active: 8.91 µM	–
COCCNC(=O)c1n[nH]c2ccccc12	inconclusive: 10 µM [activator, partial curve, poor fit]	–
O=C(CSc1nnnn1C1CCCCC1)NCCc1ccccc1	inconclusive: 10 µM [activator, partial curve]	–
Cc1ccnc(NC(=O)COc2ccccc2[N+](=O)[O-])c1	active: 5.01 µM	–
CN1CCc2c(sc3c2C(=O)NC(c2cccc(OC(=O)c4cccs4)c2)N3)C1 (configuration not stated)	inconclusive: 35.5 µM [activator, single point]	–
CC(CCc1ccccc1)NC(=O)COC(=O)c1cccc2ccccc12 (configuration not stated)	inactive	–

Structure (SMILES)	Potency	activity change, positive = activation
CC1=C(n2nnc3ccccc32)C(c2ccccc2)C(C#N)=C(N)O1 (configuration not stated)	inconclusive: 0.02 µM [activator, full curve, poor fit]	–
CC(=O)Nc1ccccc1NC(=O)CC(C)(C)C	inconclusive: 0.316 µM [activator, single point]	–
COc1ccc(N2C(=O)/C(=C/c3cccs3)NC2=S)cc1	inconclusive: 7.94 µM [activator, partial curve]	–
Cc1ccc(/C=N/N=C/c2ccc(C)cc2)cc1	inconclusive: 35.5 µM [activator, single point]	–
c1ccc(NC2=Nc3ccccc3CS2)cc1	active: 11.2 µM	–
N=C1CCC[C@@H]1C(=S)SCCC(N)=O	–	inactive: -5.05% [at 9.22 µM]
Cc1cc(C(=O)C(=O)NC(C)C)c(C)n1-c1ccc([N+](=O)[O-])cc1	inconclusive: 0.0355 µM [activator, full curve, poor fit]	–
CCCSc1cc(NCCOC(=O)CCC)c([N+](=O)[O-])c2nonc12	inconclusive: 1.78 µM [activator, partial curve]	–
CC1=C(C(=O)O)N2C(=O)C(NC(=O)c3ccn(C)n3)C2SC1 (configuration not stated)	inconclusive: 22.4 µM [activator, single point]	–
Cc1ccc(C(=O)Nc2ccc(C(F)(F)F)n(C)c2=O)cc1	active: 22.4 µM	–
N/C(Cc1cccs1)=N\OC(=O)COc1ccccc1	inactive	–
O=C(CCCc1nc(-c2ccccc2Cl)no1)NC1CCCCC1	inactive	–
CCc1nc(SCC(=O)NCCc2ccccc2)c2oc3ccccc3c2n1	inactive	–
O=C(NCCC1=CCCCC1)c1ccc2c(c1)N(Cc1ccccc1)C(=O)c1ccccc1S2(=O)=O	inactive	–
N#CC1=C(N)C(C#N)(C#N)[C@H](c2ccoc2)[C@H]2CN(Cc3ccccc3)CC=C12	inconclusive: 5.62 µM [activator, single point]	–
COc1ccc(C2CC(=O)N3CN(C4CCCCC4)CSC3=C2C#N)cc1 (configuration not stated)	inconclusive: 2.82 µM [activator, full curve]	–
Cc1ccc(-n2c(C)cc(/C=N/NC(=O)c3ccncc3)c2C)c(C)c1	inactive	–
Cc1cc([N+](=O)[O-])nn1CC(=O)Nc1c(C)n(C)n(-c2ccccc2)c1=O	inconclusive: 3.98 µM [activator, partial curve]	–
COc1ccc(NC(=O)CCCS(=O)(=O)c2nc(-c3ccc(OC)c(OC)c3)cc(C(F)(F)F)n2)cc1OC	inconclusive: 17.8 µM [activator, single point]	–
N/C(=N\OCc1ccccc1)c1nonc1N	inconclusive: 0.316 µM [activator, full curve, poor fit]	–
Cc1ccc(NC(=O)c2ccc(Oc3ncccn3)cc2)cc1	inconclusive: 12.6 µM [activator, partial curve, poor fit]	–
Cn1c(=O)c(/C=C/c2ccccc2)nc2ccccc21	active: 11.2 µM	–
COc1ccccc1OCC(=O)OCn1c(SC)nnc(C)c1=O	inconclusive: 0.501 µM [activator, single point]	–
O=C(NCc1ccco1)C(c1ccc(F)cc1)N(CC1CCCO1)C(=O)Cn1nnc2ccccc21 (configuration not stated)	inconclusive: 15.8 µM [activator, partial curve, poor fit]	–
